# Test results taken from paper PMC4336329 (PLoS ONE, 2015).
# Hit rate of the full screen: of about 310,000 compounds, about 14,000 (4.5%) showed an effect of 50% or more. Effects have a minus sign here. The list shows a part of the results.
# Target: human ether-à-go-go-related gene (hERG) potassium channel (human, UniProt Q12809)
# Assay: primary screen, population patch clamp on CHO cells stably expressing hERG
# Protocol: Briefly, Chinese hamster ovary (CHO) cells stably expressing the hERG channel were dislodged from tissue culture flasks and dispensed into PPC plates. […] During the recording, background leak currents were estimated by a 100 ms step to -80 mV from an initial holding potential of -70 mV and subtracted from the subsequent current measurement. The campaign was conducted in two phases using slight differences in recording protocol. In the first phase, the initial voltage pulse used a 100 ms step to -30 mV from a holding potential of -70 mV, a 2 s conditioning step to +25 mV, and a 2 s test step to -30 mV. During the second phase of the screen, the potential during the conditioning step was raised to +45 mV. In both phases of the campaign, a secondary voltage pulse was applied using the same parameters as the second phase initial pulse. The initial and secondary pulses were applied in the absence of compound, and upon application of 1 μM and 10 μM test concentrations. […]
# 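Note: peak tail current of the secondary pulse compared with the same well before compound.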
# human ether-à-go-go-related gene (hERG) potassium channel, sequence (Q12809 whole entry, looked up): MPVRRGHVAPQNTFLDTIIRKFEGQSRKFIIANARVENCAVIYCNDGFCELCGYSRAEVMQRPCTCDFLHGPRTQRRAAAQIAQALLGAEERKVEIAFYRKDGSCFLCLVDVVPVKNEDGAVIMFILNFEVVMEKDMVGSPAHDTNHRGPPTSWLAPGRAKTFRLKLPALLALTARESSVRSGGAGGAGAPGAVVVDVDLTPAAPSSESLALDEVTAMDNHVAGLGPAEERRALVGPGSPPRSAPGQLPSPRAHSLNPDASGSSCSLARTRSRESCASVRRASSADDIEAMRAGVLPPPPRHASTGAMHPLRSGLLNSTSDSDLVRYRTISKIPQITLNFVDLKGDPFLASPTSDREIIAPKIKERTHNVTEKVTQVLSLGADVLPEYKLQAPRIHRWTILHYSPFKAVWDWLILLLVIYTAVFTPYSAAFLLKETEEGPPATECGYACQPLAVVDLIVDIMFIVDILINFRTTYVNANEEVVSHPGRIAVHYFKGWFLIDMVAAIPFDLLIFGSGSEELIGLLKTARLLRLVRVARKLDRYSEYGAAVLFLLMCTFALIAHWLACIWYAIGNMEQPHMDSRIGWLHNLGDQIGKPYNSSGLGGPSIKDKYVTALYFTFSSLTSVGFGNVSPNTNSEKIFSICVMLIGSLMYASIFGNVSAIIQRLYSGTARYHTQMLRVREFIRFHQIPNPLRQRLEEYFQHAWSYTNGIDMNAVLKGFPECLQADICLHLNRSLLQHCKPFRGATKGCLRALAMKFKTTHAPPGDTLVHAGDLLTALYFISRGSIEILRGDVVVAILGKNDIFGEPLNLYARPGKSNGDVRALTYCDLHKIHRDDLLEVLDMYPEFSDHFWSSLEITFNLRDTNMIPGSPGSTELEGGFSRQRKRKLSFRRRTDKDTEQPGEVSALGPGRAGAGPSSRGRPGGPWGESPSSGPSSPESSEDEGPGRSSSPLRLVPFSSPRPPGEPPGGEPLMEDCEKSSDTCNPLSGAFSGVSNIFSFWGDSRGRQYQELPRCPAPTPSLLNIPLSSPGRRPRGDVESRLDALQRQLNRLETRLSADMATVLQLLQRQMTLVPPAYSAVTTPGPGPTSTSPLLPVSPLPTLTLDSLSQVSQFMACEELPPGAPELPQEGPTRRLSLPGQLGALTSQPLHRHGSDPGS
row,Structure (SMILES),"hERG current change (%, negative = inhibition) at 10uM [%]"
1,CN(C)CCCN(C(=O)c1ccc([N+](=O)[O-])s1)c1nc2cc3c(cc2s1)OCCO3.Cl,-71.3
2,CC(=O)NC(c1ccco1)c1cc(Cl)c2ccc(Cl)nc2c1O (stereo not shown),-20.4
3,COc1cc(CC(C)N)c(OC)cc1I.Cl (stereo not shown),-12.7
4,O=C(Nc1cscc1S(=O)(=O)c1ccccc1)c1ccccc1Cl,-9.12
5,O=C(CC1C(=O)NCCN1Cc1cccc(F)c1)NCCCOc1cccnc1 (stereo not shown),0.777
6,N#CCC(=O)Nc1ccc(C(=O)Nc2cccnc2)cc1,7.29
7,CCOC(=O)c1c(NC(=O)c2nc3n(n2)C(C(F)F)CC(C)N3)sc2c1CCCC2 (stereo not shown),15.4
8,COc1ccc(NC(=O)/C=C/c2ccc(OC)c(OC)c2)cn1,14.7
9,CC1=NN(C(=O)CSCc2ccccc2)C(O)(c2ccc(Cl)cc2)C1 (stereo not shown),-21.6
10,N#CCOc1coc(CN2CCN(c3ccccc3)CC2)cc1=O,7.53
11,C[C@H]1COc2c(C3(N)CC3)c(F)cc3c(=O)c(C(=O)O)cn1c23,16.4
12,Cc1ccc(NC(=O)N2C3CCCC2CC(NC(=O)C2CC2)C3)cc1 (stereo not shown),17.5
13,O=C(O)/C=C/C(=O)Nc1ccc(NC(=O)c2ccccc2)c(Cl)c1,21.4
14,CC(=O)N(C)c1ccc(NC(=O)Cc2cccc3ccccc23)cc1,7.53
15,CC(=O)NC1=NN(C(C)=O)C(C)(c2ccc(C)o2)S1 (stereo not shown),11.8
16,Cn1c(CN2CCOCC2)nc2cc(NC(=O)c3ccc(Cl)cc3)ccc21,-34.2
17,O=C(CCCn1c(=O)c2sccc2n(CC(=O)NCc2ccco2)c1=O)NCc1ccco1,-6.69
18,CCOc1ccccc1NC(=O)CCn1nc(C)c(S(=O)(=O)N2CCCCC2)c1C,11.6
19,Cc1ccc(S(=O)(=O)Cc2ccc(C(=O)N3CCC4(CC3)OCCO4)o2)cc1,2.19
20,O=C(CCCCC(=O)Nc1ccccc1Cl)Nc1ccccc1Cl,16.3
21,Cc1ccc(-c2cc(C(=O)N3CCCCC3)c3ccccc3n2)cc1C,-2.35
22,COc1ccc(C)cc1NC(=O)C1CCCN(S(=O)(=O)c2cnc[nH]2)C1 (stereo not shown),6.37

row,Structure (SMILES),"hERG current change (%, negative = inhibition) at 10uM [%]"
1,CCCC(=O)NC(=S)Nc1cccc2c(O)cccc12,11.8
2,CCOCCCn1c(SCC(=O)Nc2ccc(NC(C)=O)cc2)nc2ccccc2c1=O,7.29
3,c1ccc(Cc2nnc3sc(C4COc5ccccc5O4)nn23)cc1 (stereo not shown),-10.9
4,O=C(O)CN(c1ccccc1[N+](=O)[O-])S(=O)(=O)c1ccccc1,35.5
5,O=C(Nc1ccc(S(=O)(=O)Nc2ncccn2)cc1)C(F)(F)F,21.2
6,O=C(CN1C(=O)S/C(=C\c2cccs2)C1=O)Nc1ccc(O)c(C(=O)O)c1,-9.36
7,Cc1cccc(OCC(=O)Nc2ccc3c4c(cccc24)CC3)c1C,12
8,CCN1CCC(N2CCN(c3ccc(Cl)cc3)CC2)CC1,-18.8
9,Cc1ccc(NC(=O)C2CCN(S(C)(=O)=O)CC2)cc1,12.1
10,COc1cc(/C=N/NC(=O)Cn2nnc3ccccc32)ccc1O,8.83
11,c1ccc(CCCCN2CCN=C2Nc2ccccc2)cc1,-42
12,Cc1[nH]n(-c2ccccc2)c(=O)c1C(c1ccccc1C(=O)O)c1c(C)[nH]n(-c2ccccc2)c1=O,5.58
13,Cc1ccccc1NC(=O)NC1(C(=O)N2CCOCC2)CCCCC1,14.6
14,CC(C)NC(=O)CC(=O)N/N=C/c1cccs1,19.9
15,O=C(NCc1ccccc1)c1ccc2nnsc2c1,-1.17
16,CC(=O)N1CCCC(N2CCN(c3cccc(C(F)(F)F)c3)CC2)C1 (stereo not shown),-3.73
17,CC(=O)c1ccc(NC(=O)c2cc(CC(C)C)on2)cc1,9.71
18,CCN(C(=O)COC(=O)/C=C/c1ccco1)c1c(N)n(Cc2ccccc2)c(=O)[nH]c1=O,-1.01
19,O=C(Nc1ccc(F)cc1)C(c1ccccc1)N1CCN(CC(=O)N2CCOCC2)CC1 (stereo not shown),-52.1
20,CCN(CC(=O)N1CCCC1)S(=O)(=O)c1ccc(F)cc1,12.9
21,Cc1cccc(Cl)c1NC(=O)N1CCN(c2ccnc3cc(Cl)ccc23)CC1,-16.8
